In PubChem BioAssay (NCATS):
The other results are listed elsewhere or left out. Shown are side measurements of this screen, not its main read-out; they come without a call. The list favours compounds with an active or inconclusive main result. The note in brackets gives the kind of curve behind each potency; many fits are weak.

Assay: qHTS Assay for Lipid Storage Modulators (AID 1519)
Details: Drosophila S3 cells, BODIPY lipid droplet/cell ratio, laser cytometry, cells loaded with oleic acid
Procedure, shortened: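 Cells seeded at 5,000 per well were treated with compounds over a concentration series and loaded with oleic acid (400 uM, as added). Lipid droplet fluorescence (488 nm excitation, 500-530 nm channel) was read by laser-scanning cytometry and normalized to 20 uM Triacsin C.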

[1] = measured here: cell count channel max response
[2] = measured here: lipid (BODIPY) channel AC50
[3] = measured here: lipid channel max response
[4] = measured here: cell number channel AC50
Tags give direction and shape of the fitted curve.

Row | Compound | max response [1] [%] | AC50 [2] | max response [3] [%] | AC50 [4]
1 | COc1ccc(C(=O)N2CCC3(CCCN(C)C3)CC2)cc1 | 24.1 | 158 nM [rising, full curve, poor fit] | 31 | –
2 | COCC(=O)N1CCC2(CCN(Cc3cc(C(F)(F)F)cc(C(F)(F)F)c3)CC2)CC1 | 14.9 | 3550 nM [rising, partial curve, poor fit] | 17.3 | –
3 | O=c1c(-c2cccc(Cl)c2)nc2cncnc2n1Cc1ccccc1Cl | 22.1 | 1000 nM [rising, full curve] | 29 | –
4 | Cc1cc(C)cc(OCC2CNC(=O)O2)c1 (stereo not given) | 13.3 | 39800 nM [rising, single point] | 30.8 | –
5 | Cc1ccccc1-c1cc(N2CCNCC2)ncn1 | 29.4 | 20000 nM [rising, single point] | 34.2 | –
6 | N#CCCn1c(=O)c(-c2ccccc2)nc2cnc(N3CCOCC3)nc21 | 28.8 | 141 nM [rising, full curve] | 33.5 | –
7 | Cc1c(C)c2c(c(C)c1O)CCC(C)(CCCC(C)CCCC(C)CCCC(C)C)O2 (stereo not given) | 14.8 | 35500 nM [rising, single point] | 33.9 | –
8 | O=c1c(O)c(-c2ccc(O)c(O)c2)oc2ccccc12 | -9.16 | 4470 nM [rising, full curve, poor fit] | -16.9 | –
9 | COCC(=O)N1CCC2(CCCN(c3cccc(-c4ccccc4)c3)C2)CC1 | 11.8 | – | -44.7 | 1120 nM [rising, full curve, poor fit]
10 | CCCn1c(=O)[nH]c2nc(-c3ccc(S(=O)(=O)O)cc3)[nH]c2c1=O | 25.6 | 17800 nM [rising, single point] | 33.1 | –
11 | C=CC(C1=CC(=O)C(OC)=CC1=O)c1ccc(OC)cc1 (stereo not given) | 1.9 | 1780 nM [rising, full curve, poor fit] | 24.1 | –
12 | N#Cc1cccc(NC(=O)N2CC[C@@]3(CCCN(S(=O)(=O)c4ccccc4)C3)C2)c1 | -0.345 | – | 5.43 | 3550 nM [rising, single point]
13 | O=C(c1cc(C(F)(F)F)cc(C(F)(F)F)c1)N1CCC2(CCCN(c3ccccn3)C2)CC1 | 16.5 | 1780 nM [rising, partial curve, poor fit] | 13.7 | –
14 | C[C@H](O)[C@@H]1C(=O)N2C(C(=O)O)=C(SCCN=CN)C[C@@H]12 | 8.17 | 2.51 nM [rising, full curve, poor fit] | 6.98 | –
15 | Cn1cc(-c2nc3cnc(Oc4ccccc4)nc3n(CCC#N)c2=O)c2ccccc21 | 7.77 | 7940 nM [rising, partial curve, poor fit] | 11 | –
16 | O=C(O)c1ccccc1OP(=O)(O)O | 27.2 | 39800 nM [rising, partial curve, poor fit] | 41.2 | –
17 | CCOC(=O)C1(O)Oc2cc(OC)cc(OC)c2C(=O)C1c1ccccc1 (stereo not given) | 46.5 | 28200 nM [rising, partial curve] | 64.4 | –
18 | COCC(=O)N1CCC2(CCCN(Cc3nccs3)C2)CC1 | 29.5 | 6.31 nM [rising, full curve, poor fit] | 35.8 | –
19 | O=c1c(CCc2ccccc2)nc2cnc(Nc3ccccc3)nc2n1Cc1cccs1 | 22.3 | – | -85.5 | 2510 nM [rising, partial curve]
20 | NC1C(O)OC(CO)[C@@H](O)[C@@H]1O[C@H]1O[C@@H](C(=O)O)C(O)C(O)C1O (stereo not given in full) | 27.9 | 39800 nM [rising, single point] | 39 | –
21 | O=c1c(-c2cccs2)nc2cnc(Nc3ccccc3)nc2n1C[C@H]1CCCO1 | 15.9 | 22400 nM [falling, single point] | -40.5 | –
22 | COCCn1c(=O)c(CCc2ccccc2)nc2cncnc21 | 18.2 | 3550 nM [rising, full curve, poor fit] | 23.9 | –
23 | O=c1c(O)c(-c2ccccc2)oc2ccc3occc3c12 | 29.3 | 10 nM [rising, full curve, poor fit] | 41 | –
24 | COc1ccccc1-c1nc(NCc2cccnc2)c2ccccc2n1 | 11.9 | 282 nM [rising, partial curve] | 13.9 | –
25 | CN(C)CC[C@@H](c1ccc(Cl)cc1)c1ccccn1 | 28.5 | 39800 nM [rising, single point] | 41 | –

Row | Compound | max response [1] [%] | AC50 [2] | max response [3] [%] | AC50 [4]
26 | N#CCCn1c(=O)c(-c2ccccc2)nc2cnc(Oc3cccc(Cl)c3)nc21 | 13.4 | 5.62 nM [rising, full curve, poor fit] | 20.8 | –
27 | CN(C)c1ncc2nc(-c3ccccc3)c(=O)n(CCC#N)c2n1 | 19.6 | 631 nM [rising, full curve] | 29.2 | –
28 | COc1ccc(-c2nc3cnc(Oc4ccccc4)nc3n(C3CC3)c2=O)cc1 | 18 | 31.6 nM [rising, full curve, poor fit] | 26.3 | –
29 | Cn1cc(-c2nc3cnc(Oc4ccccc4)nc3n(Cc3cccs3)c2=O)c2ccccc21 | 21 | 631 nM [rising, full curve, poor fit] | 25.7 | –
30 | COc1ccc(-c2nc3cnc(N4CCN(C)CC4)nc3n(CCc3ccccc3)c2=O)cc1 | 10.1 | 4470 nM [rising, single point] | 8.27 | –
31 | COc1cccc(-c2cc(=O)c3ccc(OC)cc3o2)c1 | 2.82 | 562 nM [rising, full curve] | 12.8 | –
32 | COc1cc2ccc(=O)oc2c(OC)c1OC | 12.2 | 22400 nM [rising, partial curve] | 31.6 | –
33 | CC1(C)OC(=O)NC1=O | 24.6 | 39800 nM [rising, single point] | 44.1 | –
34 | CN(C)c1ccc(O)c2c1C[C@@H]1C[C@H]3C(N(C)C)C(=O)C(C(N)=O)=C(O)[C@@]3(O)C(=O)C1=C2O (stereo not given in full) | 17.2 | 25100 nM [rising, single point] | 42.5 | –
35 | COc1ccccc1CNc1ncncc1-c1ccccc1Cl | 24.1 | 631 nM [rising, full curve, poor fit] | 28.2 | –
36 | Cn1c(=O)c(-c2ccc(F)cc2)nc2cnc(Oc3ccccc3)nc21 | 22 | 112 nM [rising, full curve, poor fit] | 33.5 | –
37 | O=S(=O)(c1ccccc1)N1CCC[C@@]2(CCN(C(c3ccccc3)c3ccccc3)C2)C1 | 3.25 | 251 nM [rising, full curve, poor fit] | 13.2 | –
38 | COc1ccc(-c2ccc(N)[n+](CCCC(=O)O)n2)cc1 | 41.3 | 14100 nM [falling, single point] | 41.8 | 14100 nM [falling, partial curve, poor fit]
39 | Cc1nc2cnc(N(C)C)nc2n(-c2ccccc2)c1=O | 36.9 | 3980 nM [rising, partial curve, poor fit] | 45.2 | 6310 nM [rising, partial curve, poor fit]
40 | c1cncc(-c2nc(N3CCNCC3)c3ccccc3n2)c1 | 32.9 | 1580 nM [rising, full curve, poor fit] | 42.1 | 1580 nM [rising, full curve, poor fit]
41 | COc1cccc(-c2cncnc2NCCc2cnc[nH]2)c1 | 13 | 891 nM [rising, full curve, poor fit] | 19.2 | 891 nM [rising, full curve, poor fit]
42 | COc1cc(O)c2c(=O)cc(-c3ccccc3)oc2c1 | 85.8 | 12600 nM [rising, partial curve] | 109 | 12600 nM [rising, partial curve]
43 | COc1ncc2nc(C)c(=O)n(CCc3ccccc3)c2n1 | 8.89 | 141 nM [rising, full curve] | 13 | –
44 | COc1ncc2nc(-c3ccc(F)cc3)c(=O)n(C[C@H]3CCCO3)c2n1 | 23.1 | 3160 nM [rising, partial curve] | 29.1 | 3550 nM [rising, partial curve, poor fit]
45 | COCCn1c(=O)c(-c2cc(F)cc(F)c2)nc2cnc(Nc3cccc(OC)c3)nc21 | 32.9 | 22.4 nM [rising, full curve, poor fit] | 21.7 | 1780 nM [rising, partial curve, poor fit]
46 | COc1ccccc1-c1cncnc1NCc1cnc(C)cn1 | 32.9 | 2820 nM [rising, full curve, poor fit] | 39 | 2820 nM [rising, full curve, poor fit]
47 | C[C@H]1[C@H](C)CC[C@]2(C(=O)O)CC[C@]3(C)C(=CCC4[C@@]5(C)C[C@@H](O)[C@H](O)[C@@](C)(CO)[C@@H]5CC[C@]43C)[C@H]12 (stereo not given in full) | 31.3 | – | 22.5 | 31600 nM [rising, single point]
48 | Cc1nc2cnc(Oc3cccc(Cl)c3)nc2n(C2CC2)c1=O | 24 | 1780 nM [rising, full curve, poor fit] | 29.9 | –
49 | COCCNC(=O)COc1ccc(OCCNC[C@@H](O)COc2ccccc2)cc1 | 51.3 | 39800 nM [rising, single point] | 66.5 | 39800 nM [rising, single point]
50 | N#CCCn1c(=O)c(CCc2ccccc2)nc2cnc(Nc3ccccc3)nc21 | 31.8 | 447 nM [rising, full curve, poor fit] | 35.7 | 447 nM [rising, partial curve]
